# Measurements: article PMC12040169 (PLOS Biology, 2025)
# The other results are listed elsewhere or left out.
# Tested on: T1, C. trachomatis L2/434/Bu expressing GFP (CTL2-GFP)
# T1 construct: L2/434/Bu GFP intracellular growth in HeLa cells
# Set-up: species or system HeLa; C. trachomatis total inclusion area by high-content imaging, normalised to DMSO
# Conditions: total inclusion area; 28.5 h, 10 µM; inhibitor
# How it was run: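 Following bulk GFP and resorufin fluorescence reads, infected cells were fixed, Hoechst-stained and imaged on a high-content platform. Inclusion total area and number per well served as growth proxies; nuclei counts indicated host viability. MICs were derived as for the fluorescence assay.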
row,Compound,% of control remaining
1,O=S(=O)(c1ccccc1)C1C2C=CC(COC3CCCCO3)(O2)C1S(=O)(=O)c1ccccc1 (stereo not shown) [CBK020045],96.6169
2,COc1ccc([C@@]23CC[C@@H](NC(=O)Nc4ccc(Cl)nc4)C[C@@H]2N(C)CC3)cc1OC [CBK045764],72.9245
3,Cc1cc(O)nc(C(C)N2CCCN(CC(F)(F)F)CC2)n1 (stereo not shown) [CBK305491],98.5837
4,O=C(Nc1cc(N2CCCS2(=O)=O)ccc1F)c1n[nH]c2ccccc12 [CBK304216],34.5869
5,COc1ccc(C(=O)C2=C(O)C(=O)N(CCN3CCNCC3)C2c2ccccc2F)cc1 (stereo not shown) [CBK264666],109.78
6,CC(C)NC(=O)C[C@@H]1c2nc(-c3ccccc3)sc2C[C@@H]2[C@](C)(CO)[C@H](O)CC[C@]21C [CBK289570],104.165
7,Sc1nnc(-c2ccncc2)n1CCc1ccccc1 [CBK265819],99.7016
8,O=C(NCCN1CCC(O)(c2ccc(F)cc2)CC1)C1CCCCC1 [CBK283165],102.306
9,Cc1cccc(OCC2CCCN(C(=O)c3cn(C)cn3)C2)c1 (stereo not shown) [CBK307021],86.9518
10,COCCC(=O)N1C[C@@H]2C[C@H](C1)c1ccc(NC(=O)Nc3cccc(F)c3)c(=O)n1C2 [CBK289075],111.66
11,CCOC(=O)C(NC(=O)C1CCC(=O)N1)c1cccc(C)c1C (stereo not shown) [CBK305472],24.3145
12,Nc1nc(CCN2CCOCC2=O)cs1 [CBK003792],84.3108
13,COCCNc1nc(-c2ccccc2)ccc1C(=O)Nc1cccc(OC)c1 [CBK105886],116.595
14,COCCNC(=O)c1ccc(-n2ccnc2)c(-n2cccc2)c1 [CBK285369],106.763
15,CC(C)COC(=O)N1CCC2(CC1)CC(=O)N(Cc1ccc(S(C)(=O)=O)cc1)C2=O [CBK155948],76.4218
16,CCOC(=O)CSc1nnc(NS(=O)(=O)c2cccc(Cl)c2C)s1 [CBK004669],73.0622
17,CCOCCn1nc(C)cc1C(=O)NC(CC)c1cn2cccnc2n1 (stereo not shown) [CBK307377],61.606
18,O=C1N/C(=N/N=C/c2ccc(O)cc2)SC1Cc1ccccc1[N+](=O)[O-] (stereo not shown) [CBK261684],110.711
19,COc1nc(NCCN2CCOCC2)nc(Nc2ccc(Cl)cc2)n1 [CBK262541],93.0705
20,O=C(c1cccc(C(F)(F)F)c1)N1CCCC2(CCN(Cc3ccccc3)C2)C1 (stereo not shown) [CBK137039],88.8013

row,Compound,% of control remaining
1,O=C(NC1CC1)c1ccsc1NC(=O)C1C2C=CC(C2)C1C(=O)O (stereo not shown) [CBK270322],98.4709
2,CS(=O)(=O)N1CCN(c2ccccc2NC(=O)COc2ccccc2Cl)CC1 [CBK269250],87.3435
3,Cc1ccc(-c2csc3nc(SCC(=O)NCC4CCCO4)n(-c4ccccc4)c(=O)c23)cc1 (stereo not shown) [CBK265610],99.0838
4,O=C(COc1ccccc1)C(C(=O)c1ccccc1)=C1Nc2ccccc2N1 [CBK263725],111.715
5,C=CCC1(CC=C)CCN1C(=O)c1cccc(N2CCCC2=O)c1 [CBK282709],112.114
6,CCc1ccc(-c2cc3c(=O)[nH]nc(S)n3n2)cc1 [CBK288485],76.2298
7,O=C(CSc1nnc(-c2ccncc2)n1-c1ccccc1)Nc1ccc([N+](=O)[O-])cc1 [CBK266620],121.567
8,Cc1ccc(S(=O)(=O)Nc2ccc3c(ccn3CCOC3CCN(C(=O)OC(C)(C)C)CC3)c2)cc1Cl [CBK172991],69.4658
9,CCCC/C=C/c1cncc(Nc2ccccc2)n1 [CBK037942],75.6693
10,CCC(SC1=NCCS1)C(=O)Nc1ccc(S(N)(=O)=O)cc1 (stereo not shown) [CBK263027],106.249
11,COC(=O)c1ccc(NC(=O)COn2nnc3ccc([N+](=O)[O-])cc32)cc1 [CBK267106],118.847
12,COc1ccc(N(C(C)C(=O)N/N=C(\C)c2ccccc2O)S(C)(=O)=O)cc1 (stereo not shown) [CBK262402],94.5027
13,COc1ccc(CN2C(=O)COC[C@@H]2[C@H](O)c2ccc(NC(=O)c3ccc(OC)cc3)cc2)cc1 [CBK289675],105.628
14,O=C(Nc1cccc(N2CCNCC2)c1)C1CCCO1 (stereo not shown) [CBK004768T],96.9342
15,O=[N+]([O-])c1ccc(N2CCNCC2)cc1NCCO [CBK262851],102.101
16,CN(CC(=O)O/N=C(\N)c1ccccn1)S(=O)(=O)c1ccc(Br)cc1 [CBK268617],127.874
17,O=C(NCc1ccncc1)C1CC1c1ccccc1 (stereo not shown) [CBK288242],107.744
18,O=[N+]([O-])c1cccc(S(=O)(=O)NCCSc2ccccc2)c1 [CBK267862],110.657
19,O=C1CCC2(CCN1)CCN(Cc1cccc(-c3ccco3)c1)CC2 [CBK307264],41.5635
20,CCN1C(=O)c2cccc3c(S(=O)(=O)Nc4cccc(C(=O)O)c4)ccc1c23 [CBK299838],121.075
